Residue numbers refer to the chain shown, from its start. The list shows a part of the results.
T1: RBFOX1 RRM RbFoxmut (Fox-RRM*) (Homo sapiens, UniProt Q9NWB1 109-208, R118D;E147R;N151S;E152T)
T1 sequence: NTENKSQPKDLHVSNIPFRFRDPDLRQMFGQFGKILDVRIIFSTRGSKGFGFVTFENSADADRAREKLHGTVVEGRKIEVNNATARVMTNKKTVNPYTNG

B1: GUUAUGU (DNA:RNA)
RNA: GGGAGACCGGAAUUCAGAUUGUCCGUUAUGUUUAAAUCCCGUCGUAGCCACCA
DNA 1: CAATCTGAATTCCGGTCTCCC
DNA 2: TGGTGGCTACGACGGGATT
B2: UAUUUAU (DNA:RNA)
RNA: B1 RNA with G25U, U26A, A28U, G30A
DNA 1: CAATCTGAATTCCGGTCTCCC
DNA 2: TGGTGGCTACGACGGGATT
B3: UGCCAGU (DNA:RNA)
RNA: B1 RNA with G25U, U26G, U27C, A28C, U29A
DNA 1: CAATCTGAATTCCGGTCTCCC
DNA 2: TGGTGGCTACGACGGGATT
B4: GUUUACA (DNA:RNA)
RNA: B1 RNA with A28U, U29A, G30C, U31A
DNA 1: CAATCTGAATTCCGGTCTCCC
DNA 2: TGGTGGCTACGACGGGATT
B5: CCGUCAC (DNA:RNA)
RNA: GGGAGACCGGAAUUCAGAUUGUCCCCGUCACUUAAAUCCCGUCGUAGCCACCA
DNA 1: CAATCTGAATTCCGGTCTCCC
DNA 2: TGGTGGCTACGACGGGATT
B6: CGGAACU (DNA:RNA)
RNA: B5 RNA with C26G, U28A, C29A, A30C, C31U
DNA 1: CAATCTGAATTCCGGTCTCCC
DNA 2: TGGTGGCTACGACGGGATT
B7: UUGUCGC (DNA:RNA)
RNA: B5 RNA with C25U, C26U, A30G
DNA 1: CAATCTGAATTCCGGTCTCCC
DNA 2: TGGTGGCTACGACGGGATT
B8: AGAAUAG (DNA:RNA)
RNA: B1 RNA with G25A, U26G, U27A, G30A, U31G
DNA 1: CAATCTGAATTCCGGTCTCCC
DNA 2: TGGTGGCTACGACGGGATT
B9: UCGAAUC (DNA:RNA)
RNA: B5 RNA with C25U, U28A, C29A, A30U
DNA 1: CAATCTGAATTCCGGTCTCCC
DNA 2: TGGTGGCTACGACGGGATT
B10: CACGUCG (DNA:RNA)
RNA: B5 RNA with C26A, G27C, U28G, C29U, A30C, C31G
DNA 1: CAATCTGAATTCCGGTCTCCC
DNA 2: TGGTGGCTACGACGGGATT
B11: UGUGGGG (DNA:RNA)
RNA: B1 RNA with G25U, U26G, A28G, U29G, U31G
DNA 1: CAATCTGAATTCCGGTCTCCC
DNA 2: TGGTGGCTACGACGGGATT
B12: AAUCACC (DNA:RNA)
RNA: B5 RNA with C25A, C26A, G27U, U28C, C29A, A30C
DNA 1: CAATCTGAATTCCGGTCTCCC
DNA 2: TGGTGGCTACGACGGGATT
B13: AAUCCGA (DNA:RNA)
RNA: B1 RNA with G25A, U26A, A28C, U29C, U31A
DNA 1: CAATCTGAATTCCGGTCTCCC
DNA 2: TGGTGGCTACGACGGGATT
B14: UCUCAUU (DNA:RNA)
RNA: B1 RNA with G25U, U26C, A28C, U29A, G30U
DNA 1: CAATCTGAATTCCGGTCTCCC
DNA 2: TGGTGGCTACGACGGGATT
B15: GUUACAC (DNA:RNA)
RNA: B1 RNA with U29C, G30A, U31C
DNA 1: CAATCTGAATTCCGGTCTCCC
DNA 2: TGGTGGCTACGACGGGATT
B16: UCUCCUG (DNA:RNA)
RNA: B5 RNA with C25U, G27U, U28C, A30U, C31G
DNA 1: CAATCTGAATTCCGGTCTCCC
DNA 2: TGGTGGCTACGACGGGATT
B17: GAUUGCC (DNA:RNA)
RNA: B5 RNA with C25G, C26A, G27U, C29G, A30C
DNA 1: CAATCTGAATTCCGGTCTCCC
DNA 2: TGGTGGCTACGACGGGATT
B18: AUUACCC (DNA:RNA)
RNA: B1 RNA with G25A, U29C, G30C, U31C
DNA 1: CAATCTGAATTCCGGTCTCCC
DNA 2: TGGTGGCTACGACGGGATT
B19: CCUACAU (DNA:RNA)
RNA: B5 RNA with G27U, U28A, C31U
DNA 1: CAATCTGAATTCCGGTCTCCC
DNA 2: TGGTGGCTACGACGGGATT
B20: CUUAGCA (DNA:RNA)
RNA: B1 RNA with G25C, U29G, G30C, U31A
DNA 1: CAATCTGAATTCCGGTCTCCC
DNA 2: TGGTGGCTACGACGGGATT
B21: UCAUUUG (DNA:RNA)
RNA: B5 RNA with C25U, G27A, C29U, A30U, C31G
DNA 1: CAATCTGAATTCCGGTCTCCC
DNA 2: TGGTGGCTACGACGGGATT
B22: GUUCUUA (DNA:RNA)
RNA: B1 RNA with A28C, G30U, U31A
DNA 1: CAATCTGAATTCCGGTCTCCC
DNA 2: TGGTGGCTACGACGGGATT
B23: UCCUCAU (DNA:RNA)
RNA: B5 RNA with C25U, G27C, C31U
DNA 1: CAATCTGAATTCCGGTCTCCC
DNA 2: TGGTGGCTACGACGGGATT
B24: GUUCUAC (DNA:RNA)
RNA: B1 RNA with A28C, G30A, U31C
DNA 1: CAATCTGAATTCCGGTCTCCC
DNA 2: TGGTGGCTACGACGGGATT
B25: AAGCGGG (DNA:RNA)
RNA: B5 RNA with C25A, C26A, U28C, C29G, A30G, C31G
DNA 1: CAATCTGAATTCCGGTCTCCC
DNA 2: TGGTGGCTACGACGGGATT
B26: CGUACGC (DNA:RNA)
RNA: B5 RNA with C26G, G27U, U28A, A30G
DNA 1: CAATCTGAATTCCGGTCTCCC
DNA 2: TGGTGGCTACGACGGGATT
B27: CAUCGCA (DNA:RNA)
RNA: B5 RNA with C26A, G27U, U28C, C29G, A30C, C31A
DNA 1: CAATCTGAATTCCGGTCTCCC
DNA 2: TGGTGGCTACGACGGGATT
B28: GAGGUCU (DNA:RNA)
RNA: B1 RNA with U26A, U27G, A28G, G30C
DNA 1: CAATCTGAATTCCGGTCTCCC
DNA 2: TGGTGGCTACGACGGGATT
B29: UUUUCCA (DNA:RNA)
RNA: B5 RNA with C25U, C26U, G27U, A30C, C31A
DNA 1: CAATCTGAATTCCGGTCTCCC
DNA 2: TGGTGGCTACGACGGGATT
B30: GGCAAUG (DNA:RNA)
RNA: B1 RNA with U26G, U27C, U29A, G30U, U31G
DNA 1: CAATCTGAATTCCGGTCTCCC
DNA 2: TGGTGGCTACGACGGGATT
B31: UGAUUAA (DNA:RNA)
RNA: B5 RNA with C25U, C26G, G27A, C29U, C31A
DNA 1: CAATCTGAATTCCGGTCTCCC
DNA 2: TGGTGGCTACGACGGGATT

Molecular target: T1, RBFOX1 RRM RbFoxmut (Fox-RRM*)
Experiment: EMSA; HiTS-Eq, 1 nM pool, 10 min; buffer printed only for the single-RNA assays: 10 mM Tris pH 7.5, 150 mM NaCl, 3.4 mM EDTA, 0.001% NP-40, 30 C
Settings: tags: His6 N-terminal (pET28a); label: 5' 32P
Summary of the method: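 These values rest on relative association constants, computed from read-count changes of each RNA species versus the control reaction and normalised to the cognate motif. Reads came from free RNA recovered by 8% native PAGE after purified RbFox RRM (wild type or mutant) at increasing concentrations was equilibrated for 10 min in 50 µL with 1 nM of a 5′-radiolabelled pool with 7 randomized nucleotides and DNA-annealed flanks.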

Binder	binding signal
B1	0.268 KA relative to UGCAUGU
B2	0.0992 KA relative to UGCAUGU
B3	0.0904 KA relative to UGCAUGU
B4	0.136 KA relative to UGCAUGU
B5	0.0656 KA relative to UGCAUGU
B6	0.0603 KA relative to UGCAUGU
B7	0.127 KA relative to UGCAUGU
B8	0.144 KA relative to UGCAUGU
B9	0.36 KA relative to UGCAUGU
B10	0.109 KA relative to UGCAUGU
B11	0.0927 KA relative to UGCAUGU
B12	0.0566 KA relative to UGCAUGU
B13	0.0381 KA relative to UGCAUGU
B14	0.101 KA relative to UGCAUGU
B15	0.0877 KA relative to UGCAUGU
B16	0.0894 KA relative to UGCAUGU

Binder	binding signal
B17	0.179 KA relative to UGCAUGU
B18	0.0885 KA relative to UGCAUGU
B19	0.0881 KA relative to UGCAUGU
B20	0.158 KA relative to UGCAUGU
B21	0.113 KA relative to UGCAUGU
B22	0.0868 KA relative to UGCAUGU
B23	0.11 KA relative to UGCAUGU
B24	0.0959 KA relative to UGCAUGU
B25	0.0834 KA relative to UGCAUGU
B26	0.108 KA relative to UGCAUGU
B27	0.164 KA relative to UGCAUGU
B28	0.101 KA relative to UGCAUGU
B29	0.0593 KA relative to UGCAUGU
B30	0.287 KA relative to UGCAUGU
B31	0.0944 KA relative to UGCAUGU

Reference: PMC9911399, “Two distinct binding modes provide the RNA-binding protein RbFox with extraordinary sequence specificity”
